These results are taken from PubChem BioAssay AID1159614 (National Center for Advancing Translational Sciences (NCATS), 2016).

In all, about 45,000 compounds went through this assay and about 65 (0.1%) were called active. Calls follow the shape of the dose curve; as a rule, active = well fitted activation curve with a large enough effect; inconclusive = small, poorly fitted or top-dose-only effect; inactive = no such curve, though single readings can be large or run the other way. The list shows a part of the results.

Chain of UniProt P54803 (P54803 whole entry, looked up): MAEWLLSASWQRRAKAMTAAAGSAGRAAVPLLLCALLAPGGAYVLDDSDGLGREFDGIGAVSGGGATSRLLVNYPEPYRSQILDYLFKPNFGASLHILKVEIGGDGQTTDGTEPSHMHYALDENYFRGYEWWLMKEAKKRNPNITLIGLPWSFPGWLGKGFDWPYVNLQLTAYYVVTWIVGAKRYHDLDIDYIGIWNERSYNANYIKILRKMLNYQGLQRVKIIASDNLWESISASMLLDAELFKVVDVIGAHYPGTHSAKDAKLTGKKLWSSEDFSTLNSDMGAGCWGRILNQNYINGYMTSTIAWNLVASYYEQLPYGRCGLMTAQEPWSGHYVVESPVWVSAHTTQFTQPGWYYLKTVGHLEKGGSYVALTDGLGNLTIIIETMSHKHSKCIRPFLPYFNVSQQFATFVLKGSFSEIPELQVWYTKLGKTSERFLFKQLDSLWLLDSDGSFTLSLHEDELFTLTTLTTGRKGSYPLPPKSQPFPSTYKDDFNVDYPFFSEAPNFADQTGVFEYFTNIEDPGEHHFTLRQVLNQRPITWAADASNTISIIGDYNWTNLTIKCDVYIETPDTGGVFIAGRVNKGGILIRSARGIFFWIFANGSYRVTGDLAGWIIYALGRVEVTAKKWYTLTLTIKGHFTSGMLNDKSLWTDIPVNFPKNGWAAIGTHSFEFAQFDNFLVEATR

The target in this assay is Galactocerebrosidase (Homo sapiens) (UniProt P54803). Kind of assay: A Novel Cell-Based Assay to Identify Small Molecules for B -Galactocerebrosidase. Also: 0% is about no effect; nearly all actives have a fitted effect of over 65% in size. The settings on record: 145M-Twi-hGALC-G270D cells, HMU-beta-Gal fluorescence, 48 h; series mostly up to 57.5 µM; activation: at the top concentration. The method, boiled down:
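qHTS, 1536-well; 145M-Twi-hGALC-G270D cells (WT line also made) in DMEM/F12 + 10% FBS; compound incubation on live cells; HMU-β-gal 0.1 mM final, pH 5.2, NaTC; carbonate stop; fluorescence increase = enhanced residual activity.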
For the compound `Cc1nc(S(=O)(=O)N2CCN(c3ccc(Cl)cc3)CC2)cn1C`, the “activation” value is inactive: -20.3%. In the case of `COc1ccccc1NC(=O)Cn1nnc(C(=O)NCc2cccs2)c1N`, the “activation” value was inactive: -1.48%. On to `O=c1cc(COc2ccccc2Cl)nc2scc(-c3ccccc3)n12`, for which the “activation” value was inactive: -4.4%. Consider `CCc1cccc(NC(=O)CSc2ncc3c(n2)-c2cc(Cl)ccc2N(C)S3(=O)=O)c1`, for which the “activation” value is inactive: -20.6%. Regarding `CCOC(=O)c1ccc(N2C(=O)c3[nH]nc(-c4ccc(OC)cc4)c3C2c2cccc(O)c2)cc1` (centres undefined), the “activation” value was inactive: 11.2%. Take `COc1ccccc1CNC(=O)CCn1c(=O)c2ccccc2n(CC(=O)Nc2cc(Cl)ccc2C)c1=O`: the “activation” value is inactive: -0.68%. Regarding `O=C(Nc1cccc(C(=O)OCc2cc(=O)n3c4c(sc3n2)CCCC4)c1)c1cccc(F)c1`, the “activation” value was inactive: -14.7%.

With `COc1ccc(NC(=O)CCS(=O)(=O)c2nc(-c3ccc4c(c3)OCO4)cc(C(F)(F)F)n2)cc1OC`, the “activation” value was inactive: -6.25%. Consider `CCC(C)NC(=O)CCSc1nc(-c2ccc3c(c2)OCO3)cc(C(F)(F)F)n1` (centres undefined), for which the “activation” value is inactive: -10.5%. Take `C[C@]12C=CC(=O)C=C1[C@@H](F)C[C@@H]1[C@@H]2[C@@H](O)C[C@@]2(C)[C@H]1CC[C@]2(O)C(=O)CO`: the “activation” value is inactive: -11.8%.

Consider `Cc1ccc(C2NC(=O)c3n[nH]c(-c4cccs4)c32)cc1` (centres undefined), for which the “activation” value is inactive: -7.96%.

Consider `Cc1ccc(Cl)cc1N1CCN(C(=O)Cn2nc(C)c3sc4ccccc4c3c2=O)CC1`, for which the “activation” value was inactive: -15.3%. The same measure for `COCCNC(=O)c1c(NC(=O)c2cc(=O)c3cc(C)cc(C)c3o2)sc2c1CCCC2`: inactive: -9.03%; for `Cc1ccc(NC(=O)CSc2nc3ccc(NC(=O)c4ccco4)cc3s2)cc1`: inactive: -3.4%. As for `COc1ccc(C2CC(=O)c3cc(-c4nc(-c5cccc([N+](=O)[O-])c5)cs4)c(=O)n(-c4cccc(C)c4)c3C2)cc1` (centres undefined), the “activation” value is inactive: -5.75%. In the case of `COc1cc(C(=O)NCc2ccc3c(c2)CCN3C(=O)c2ccc(Cl)cc2)cc(OC)c1OC`, the “activation” value is inactive: -6.17%. The result for `COC(=O)c1c(NC(=O)Cc2coc3cc(C)cc(C)c23)sc2c1CCC2` reads inactive: -10.4%; that for `Cc1ccc(NC(=O)CSc2nc(=O)n(Cc3ccccn3)c3c2CCC3)cc1F`, inactive: -1.22%. Consider `COc1cccc(Cn2c(C)c(CNCc3cccc(C)c3)c(C(=O)O)c2C)c1`, for which the “activation” value was inactive: 2.27%.

Turning to `O=C(Nc1ccccc1Cl)N1CCC2(CC1)Oc1ccccc1C(=O)N2Cc1ccc(F)cc1`, the “activation” value is inactive: -15.6%. Regarding `CC(=O)c1ccc(NC(=O)c2ccc(-c3nc(CSc4ccc(C)cc4)c(C)o3)cc2)cc1`, the “activation” value is inactive: -13.1%. Regarding `CCc1ccc(NC(=O)c2cnc3c(-c4ccccc4)c(C)nn3c2C)cc1`, the “activation” value is inactive: -5.43%. With `CCc1ccccc1NC(=O)Cn1c(=O)n(CCc2ccccc2)c(=O)c2sc3ccccc3c21`, the “activation” value was inactive: 0.528%. The result for `COc1ccc(-c2c3c(nc4sc(C(=O)Nc5cccc(OC)c5)c(N)c24)CC(C)(C)CC3=O)cc1` reads inactive: -9.76%.
